PubChem BioAssay AID504332 (National Center for Advancing Translational Sciences (NCATS), 2011)
Out of some 350,000 compounds screened, about 31,000 (8.9%) were called active. Inconclusive results, whose numbers are uncertain, are shown with a selection of clear calls. Calls follow the shape of the dose curve; as a rule, active = well fitted inhibition curve with a large enough effect; inconclusive = small, poorly fitted or top-dose-only effect; inactive = no such curve, though single readings can be large or run the other way. Potencies of inconclusive entries are doubtful fits and often do not repeat.

Each molecule was assayed against Histone-lysine N-methyltransferase EHMT2 (Homo sapiens) (UniProt Q96KQ7) (assay: qHTS Assay for Inhibitors of Histone Lysine Methyltransferase G9a). Conditions: G9a H3K9 monomethylation, AlphaScreen, 2 h; activity, negative = inhibition: at 59 µM (top of the series) unless noted.
Outline: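 G9a (20 nM) preincubated 15 min RT with compounds, then 500 nM biotinylated H3K9 peptide and 20 uM SAM added; 2 h RT reaction. Monomethyl-H3K9 product detected by AlphaScreen with anti-H3K9me1 antibody, streptavidin donor and anti-rabbit IgG acceptor beads.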
% is scaled to controls: 0 for no effect and ±100 for the full control effect; potency is read from the fitted curve at half-maximal effect; tags tell the direction and shape of the fitted curve.
Also: nearly all actives have a fitted effect of over 75% in size.

Chain of UniProt Q96KQ7 (Q96KQ7 whole entry, looked up): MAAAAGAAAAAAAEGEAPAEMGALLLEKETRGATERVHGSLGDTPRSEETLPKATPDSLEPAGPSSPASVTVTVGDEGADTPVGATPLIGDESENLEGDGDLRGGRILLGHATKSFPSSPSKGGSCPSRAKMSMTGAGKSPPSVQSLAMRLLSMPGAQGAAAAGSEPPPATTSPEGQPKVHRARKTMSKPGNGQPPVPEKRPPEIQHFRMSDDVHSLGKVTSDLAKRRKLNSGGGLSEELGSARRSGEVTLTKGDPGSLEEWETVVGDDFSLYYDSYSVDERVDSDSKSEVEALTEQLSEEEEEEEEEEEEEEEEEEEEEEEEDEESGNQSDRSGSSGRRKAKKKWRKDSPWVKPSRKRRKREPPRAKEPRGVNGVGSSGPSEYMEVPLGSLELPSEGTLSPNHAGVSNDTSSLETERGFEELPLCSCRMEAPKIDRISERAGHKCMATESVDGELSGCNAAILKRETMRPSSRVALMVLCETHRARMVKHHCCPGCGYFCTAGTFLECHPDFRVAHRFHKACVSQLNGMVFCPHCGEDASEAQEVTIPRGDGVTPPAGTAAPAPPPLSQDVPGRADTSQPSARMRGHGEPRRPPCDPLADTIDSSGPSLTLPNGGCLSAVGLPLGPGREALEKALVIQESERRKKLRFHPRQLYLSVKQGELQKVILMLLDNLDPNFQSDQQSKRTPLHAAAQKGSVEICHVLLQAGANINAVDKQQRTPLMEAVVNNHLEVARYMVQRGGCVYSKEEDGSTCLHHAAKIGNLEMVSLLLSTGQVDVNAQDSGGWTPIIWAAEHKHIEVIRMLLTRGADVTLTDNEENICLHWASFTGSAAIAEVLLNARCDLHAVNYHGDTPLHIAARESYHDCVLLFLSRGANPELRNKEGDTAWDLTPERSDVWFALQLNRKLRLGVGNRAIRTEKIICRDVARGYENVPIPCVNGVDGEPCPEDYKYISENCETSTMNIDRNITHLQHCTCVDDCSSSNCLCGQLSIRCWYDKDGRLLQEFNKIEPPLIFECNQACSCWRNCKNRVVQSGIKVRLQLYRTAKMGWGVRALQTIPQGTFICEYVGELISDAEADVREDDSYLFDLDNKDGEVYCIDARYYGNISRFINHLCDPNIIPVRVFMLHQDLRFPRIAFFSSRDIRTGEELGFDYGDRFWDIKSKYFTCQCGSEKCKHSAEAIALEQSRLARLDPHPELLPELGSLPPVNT

Row | SMILES | Potency | activity, negative = inhibition
1 | CCc1nn(CC(=O)NCc2ccccc2)c(=O)c2cccn12 | inconclusive: 28.2 µM [inhibitor, partial curve, poor fit] | 
2 | Cc1ccc(NC(=O)CNCc2ccccc2)cc1Br | active: 7.94 µM | 
3 | Cc1ccc(-c2nc3cccc(C)n3c2Nc2ccc3c(c2)OCCO3)cc1 | active: 12.6 µM | 
4 | Cc1ccc(Cn2c(C(=O)Nc3cccc(Cl)c3)cc3sccc32)cc1 | inconclusive: 31.6 µM [inhibitor, single point] | 
5 | CCCC(=O)Nc1cc(C(=O)O)ccc1S(=O)(=O)c1ccc(C)cc1 | inconclusive: 89.1 µM [inhibitor, single point] | 
6 | CCn1c(CCC(=O)N(C)CC(=O)Nc2cccc(F)c2)nc2cc(S(=O)(=O)N(C)C)ccc21 | inconclusive: 39.8 µM [inhibitor, partial curve] | 
7 | Cn1nnnc1SCCNCc1ccccc1OCc1ccccc1F | inconclusive: 8.91 µM [inhibitor, partial curve, poor fit] | 
8 | COc1cc(C(=O)NC2CCCNC2)cc(OC)c1OC (stereo not given) | inconclusive: 39.8 µM [inhibitor, single point] | 
9 | O=C(Cn1c(-c2ccccc2)noc1=O)Nc1ccc(S(=O)(=O)N2CCOCC2)cc1 |  | inactive: -6.98%
10 | COCCn1c(SCC(=O)Nc2cccc(OC)c2)nnc1-c1ccccc1 | inconclusive: 89.1 µM [inhibitor, partial curve, poor fit] | 
11 | CCOC(=O)c1cccc(NC(=O)c2ccc3c(c2)nnn3C2CCCC2)c1 |  | inactive: -1.37%
12 | CN(C(=O)CSc1nc(-c2ccccc2)cs1)C1CCS(=O)(=O)C1 (stereo not given) | inconclusive: 35.5 µM [inhibitor, single point] | 
13 | CCCC[C@]12Cc3ccccc3C(O1)c1c(c3ccccc3oc1=O)O2 | inconclusive: 0.891 µM [inhibitor, single point] | 
14 | Nc1ncnc2c1ncn2C1O[C@H](CO)[C@@H](O)[C@@H]1O (stereo not given in full) |  | inactive: 8.84%
15 | CSc1ncc(Cl)c(C(=O)Nc2ccc(S(=O)(=O)N3CCC(C)CC3)cc2)n1 |  | inactive: -22.7%
16 | CC(C)N1CCc2c(sc(NC(=O)Cc3ccccc3)c2C(N)=O)C1 |  | inactive: 2.95% [at 102 µM]
17 | CCN(CCCNC(=O)C1CCN(S(=O)(=O)c2cnc[nH]2)CC1)c1ccccc1 | inconclusive: 2.51 µM [inhibitor, partial curve, poor fit] | 
18 | O=C(NCCS(=O)(=O)N1CCN(c2ccc(F)cc2)CC1)C12CC3CC(CC(C3)C1)C2 |  | inactive: 6.87%
19 | COc1ccc(C(=S)N2CCCC2)cc1C | inconclusive: 89.1 µM [inhibitor, single point] | 
20 | CCCCc1cc(=O)oc2cc(C)c3c(C)coc3c12 |  | inactive: 16.6%
